Assay results reported in PubChem BioAssay AID434955 (Southern Research Specialized Biocontainment Screening …, 2010).
The list shows a part of the results. Shown are side measurements of this screen, not its main read-out; they come without a call. The list favours compounds with an active or inconclusive main result.

assay: beta-lactam sensitization of Mtb H37Rv, H37Rv (AID 434955);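 further: growth measured after seven days incubation then overnight dye step; 0% = bacteria only wells and 100% = bacteria with antibiotic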; conditions: M. tuberculosis H37Rv growth with meropenem, percent inhibition; measured here: primary screen without meropenem; at 25 µM

Row | SMILES | inhibition [%]
1 | O=C(Cn1nc(C(F)(F)F)c2c1CCC2)N1CCN(c2ccccc2)CC1 | -0.41
2 | C=C(C)C(=O)O[C@H]1C/C(C)=C\C(=O)/C=C(\C)[C@H](O)[C@@H]2OC(=O)C(=C)[C@@H]21 | 13.5
3 | Cc1ccccc1N1CCN(C2CCCN(C(=O)COc3ccccc3)C2)CC1 (configuration not stated) | -2
4 | O=C(c1cc(COc2ccc3c(c2)CCCC3)on1)N1CCCC1 | 10.8
5 | O=C(Nc1ccc2nc3n(c(=O)c2c1)CCCC3)c1cc([N+](=O)[O-])ccc1F | 12.5
6 | c1csc(C2Nc3ccccc3-c3nc4ccccc4n32)c1 (configuration not stated) | 1.01
7 | CN1CCN(Cc2c(O)ccc3c(-c4ccccc4)cc(=O)oc23)CC1 | 1.89
8 | Cc1cccc(NC(=O)c2ccc(COc3ccccc3)o2)n1 | -8.48
9 | O=C(CN1C(=O)NC2(CCCC2)C1=O)Nc1cc(Cl)ccc1N1CCCC1 | 3.54
10 | CCN1C(=O)c2ccc(C(=O)NCc3ccco3)cc2C1=O | -2.29
11 | C=CCNc1nc(-c2ccccc2)nc(-n2ccnc2)n1 | 72.4
12 | Cc1cc(C)c(S(=O)(=O)Nc2cc(C)on2)c(C)c1 | -1.38
13 | COCCn1c(SCC(=O)N2CCC(C)CC2)nc2c([nH]c3ccccc32)c1=O | 2.35
14 | COc1cccc(CN2CCNC(=O)C2CC(=O)N(C)C2CCOCC2)c1OC (configuration not stated) | -7.83
15 | CCCC1=C/C(=C/c2ccc(-c3ccccc3OC)o2)C(=O)O1 | 44.2
16 | CCCC(=O)NC(c1ccco1)c1c(O)ccc2ccccc12 (configuration not stated) | 7.41
17 | COc1ccc(-c2ccc(/C=C3/C(=N)N4C(C)=CSC4=NC3=O)o2)c([N+](=O)[O-])c1 | 1.03
18 | Cc1cc(C)c(C(=O)N2CCCC(N3CCN(c4ccc(F)cc4)CC3)C2)o1 (configuration not stated) | -2.23
19 | CCOC(=O)c1c(NC(=S)NC(=O)c2ccc(Cn3cc(Cl)cn3)o2)sc2c1CCC(C)C2 (configuration not stated) | 3.03
20 | O=S(=O)(c1ccc2c(c1)OCO2)N1CCN(c2nnnn2-c2ccccc2)CC1 | 1.21
21 | CCc1ccccc1NC(=O)c1cccs1 | -1.28
22 | CCCCn1c(N)c(N(CC(C)C)C(=O)C2CCN(S(=O)(=O)c3ccc(C)c(C)c3)CC2)c(=O)[nH]c1=O | 0.26

Row | SMILES | inhibition [%]
23 | Cc1cc(C(=O)Nc2ccc(Br)cc2F)n(-c2ccccc2)n1 | 48.4
24 | CON(c1nc(Cl)nc(N(C)C)n1)S(=O)(=O)c1ccc(C)cc1 | 2.86
25 | CCc1ccc(N2CC(C(=O)NC3CC3)CC2=O)cc1 (configuration not stated) | -6.05
26 | O=C(COC(=O)c1ccco1)NCC1CCCO1 (configuration not stated) | 0.04
27 | COc1cccc(CNc2nc3nc(C)cc(C)n3n2)c1 | 8.49
28 | Cc1ccc(S(=O)(=O)N(C)C)cc1NC(=O)CN1C(=O)NC2(CCCCCC2)C1=O | -4.78
29 | O=C(Nc1cccc(Br)c1)c1cc(S(=O)(=O)N2CCOCC2)cs1 | 1.33
30 | Cn1nccc1C(=O)N1CCCC(N2CCN(c3cccc(C(F)(F)F)c3)CC2)C1 (configuration not stated) | -4.27
31 | COCc1cc(=O)n2[nH]c(SC)nc2n1 | -6.95
32 | O=C(COC(=O)c1ccc(Cl)nc1)NC(=O)c1ccccc1 | 14.8
33 | Cc1cc(Nc2ccc(C(C)C)cc2)n2ncnc2n1 | -4.6
34 | O=C(c1ccccc1)c1ccccc1C(=O)N1CCOCC1 | -4.5
35 | CCC(C)[C@H](NC(=O)C1CCN(C(=O)[C@H](Cc2ccccc2)NC(=O)OC(C)(C)C)CC1)C(=O)O (some centres not stated) | 1.92
36 | CCc1ccc(-c2cc(C)no2)cc1S(=O)(=O)N1CC(=O)Nc2ccccc21 | 1.78
37 | COCn1c(-c2ccc(OC)c(OC)c2)nc2ccccc21 | -4.94
38 | O=C(CCNS(=O)(=O)c1ccc(Br)s1)NC1CCCC1 | -4.5
39 | CCOC(=O)N1CCN(c2nc3ccccn3c(=O)c2C=O)CC1 | -2.99
40 | COc1cccc(OCc2nc3c4cnn(-c5ccccc5)c4ncn3n2)c1 | 3.64
41 | O=C(CC(=O)NCc1ccc(Cl)cc1)NCc1ccccc1 | 3.81
42 | Cc1c(C#N)c2ccccc2n1CC(=O)N1CCc2ccccc2C1 | -4.91
43 | COc1ccc(/C=N/Nc2nc(-c3ccc(C)cc3)c(NC(C)=O)s2)cc1 | 45
44 | CCOC(=O)C1=C(C)N=c2s/c(=C\c3ccncc3)c(=O)n2C1c1ccc2c(c1)OCO2 (configuration not stated) | -10

Row | SMILES | inhibition [%]
45 | Cc1ccc(S(=O)(=O)Nc2ccccc2C(=O)N2CCCC2)cc1 | -0.53
46 | COc1cc(CNc2ccc(N3CCN(C(C)=O)CC3)cc2)ccc1OCc1ccc(F)cc1 | -6.92
47 | CCn1c(=O)cc(SCC(=O)Nc2cccnc2)c2ccccc21 | 3.31
48 | CCc1nc(SCC(=O)Nc2ccc(Br)cn2)n[nH]1 | -4.42
49 | CCOC(=O)c1c(C(C#N)C#N)cc(C)nc1C | -8.64
50 | CCOC(=O)c1cnc2cc(-c3ccc(C(C)(C)C)cc3)nn2c1N | 49.6
51 | COc1cccc(/C=N/Nc2nc(N3CCCC3)nc(N3CCCC3)n2)c1O | 3.67
52 | CCCCN(C(=O)c1ccc(S(=O)(=O)N(C)C)cc1)c1nc2ccccc2s1 | -7.06
53 | Cc1ccccc1CSc1nnc(-c2ccncc2)n1C | -6.29
54 | Cc1cccc2c1-c1sc(C(=O)N3CCCCC3)cc1CO2 | 7.39
55 | O=C(CNC(=O)c1ccco1)NCC(=O)OCC(=O)c1ccc(Cl)c([N+](=O)[O-])c1 | 3.68
56 | CCCCCn1cc(C(=O)C(=O)N2CCOCC2)c2ccccc21 | 12.7
57 | CC(C)Oc1ccc(Cn2c(=O)oc3ccccc32)cc1 | 1.33
58 | CCOc1ccc(NC(=O)CSc2nc3ccccc3c(=O)n2CCCC(=O)N2CCCC2)cc1 | -2.68
59 | COc1ccc(NC(=O)CSc2nn3c(=O)c(C)nnc3s2)cc1 | 1.44
60 | COc1ccc(OC)c(Nc2nc(-c3cccs3)cs2)c1 | 39.5
61 | COc1ccc(C(=O)CSc2ccc(-c3ccc(C)cc3)nn2)cc1 | 3.01
62 | COc1ccc([C@H]2CC(=O)C=C(c3cccc(C(C)C)c3)C2)cc1OC | 79.7
63 | CCOC(=O)N1CCN(C(=O)c2cc3n(n2)C(C(F)(F)F)CC(c2ccc4c(c2)OCO4)N3)CC1 (configuration not stated) | 8.18
64 | O=C(CCN1CCOCC1)c1ccc(N2CCCCC2)cc1 | 8.87
65 | COc1ccc(-c2c(NC(=O)C(C)C)n(C)c3ccccc3c2=O)cc1 | -3.55
66 | Cc1ccc(C(=O)N/C(=C\c2ccc(-c3ccccc3[N+](=O)[O-])o2)C(=O)NCCCN(C)C)cc1 | -2.74

Row | SMILES | inhibition [%]
67 | CCOc1ccc(NC(=O)c2c(NC(=O)CNCCN3CCOCC3)sc3c2CCC3)cc1 | 95.5
68 | COc1cc(-c2nc3ccc4ccccc4c3c3c2CCC3)ccc1O | -4
69 | Cc1ccc(-c2cc(-c3ccccc3)nc(N/N=C/c3cccnc3)n2)cc1 | 99.6
70 | CC1(C)CC(=O)c2cc(OCC(=O)NCCCN3CCN(c4ccc(F)cc4)CC3)ccc2O1 | -0.89
71 | O=C1/C(=C/c2ccncc2)CCc2ccccc21 | 20.6
72 | CSCCCN1CCC(n2nccc2NC(=O)CCCc2ccccc2)CC1 | -0.66
73 | COC(=O)C1=C(C)NC(=O)/C1=C\c1cc(C)n(-c2cc(C)cc(C)c2)c1C | 36.3
74 | CC(C)C[C@H](NC(=O)OC(C)(C)C)C(=O)NCC1CCC(C(=O)N[C@@H](Cc2ccccc2)C(=O)O)CC1 (some centres not stated) | -2.32
75 | COCC(=O)N1CCC(Oc2ccc(C(=O)NC3CCOC(C)(C)C3)cc2)CC1 (configuration not stated) | -1.42
76 | CC(=O)Nc1ccc(NC(=O)CN(c2ccc(F)cc2)S(=O)(=O)c2ccc3c(c2)OCCO3)cc1 | -3.52
77 | C=CCNC(=S)NC(=O)c1csc([N+](=O)[O-])c1 | 18.2
78 | Cn1nnnc1Sc1ncnc2scc(-c3cccc(F)c3)c12 | 32.3
79 | O=C1c2cccc3cccc(c23)C(=O)N1c1nccs1 | -2.67
80 | COc1ccc(N2CCN(C(=O)CCCC(=O)c3ccccc3)CC2)cc1 | -0.73
81 | Cc1cccnc1NC(=O)c1c(O)c2cccc3c2n(c1=O)CCC3 | 6.41
82 | COc1ccc(C(=O)CCN2CCN(c3ccccc3OC)CC2)cc1 | 5.63
83 | Cc1cccc(Nc2nnc(SCC(=O)c3ccc(Br)s3)s2)c1C | 0.19
84 | COc1ccc(NC2CCCN(C(=O)COc3ccc(C)cc3)C2)cc1 (configuration not stated) | 76.4
85 | CCCCc1nc(C(N)=O)c2[nH]c(=O)n(-c3ccc(OC)c(OC)c3)c2n1 | -2.22
86 | Cc1ccc(CNC(=O)C2CCN(C(=O)c3cccc(Cl)c3)CC2)cc1 | 11.9
87 | O=C(CC1C(=O)NCCN1C(=S)Nc1ccccc1)Nc1ccc2c(c1)OCCO2 (configuration not stated) | 1.3
88 | N/C(=N\c1nc2ccccc2o1)NC(=O)c1ccccc1Br | 37.8

Row | SMILES | inhibition [%]
89 | Cc1ccc(NC(=O)c2sc(N)nc2C)cc1 | 3.82
90 | O=c1[nH]c(Cc2ccccc2)nc2c1oc1ccccc12 | -6.95
91 | Cc1cc2c(cc1C)N(C(=O)CSC1=NCCS1)C(C)(C)c1ssc(=S)c1-2 | 5.99
92 | Cc1cc2c(cc1S(=O)(=O)Nc1cccc(C)c1C)n(C)c(=O)c(=O)n2C | 5.43
93 | COc1ccc(S(=O)(=O)Cc2ccc(C(=O)NC3CC3)o2)cc1 | -14.2
94 | COc1ccc([N+](=O)[O-])cc1C1NN=C(c2ccccc2O)S1 (configuration not stated) | 29.1
95 | CCc1ccccc1NS(=O)(=O)c1cc2c(cc1C)n(C)c(=O)c(=O)n2C | -6.35
96 | CCn1cc(C(=O)Nc2ccc(OC)c(OC)c2)c2cc(OC)c(OC)cc2c1=O | -6.94
97 | COc1ccc(NC(=O)c2oc3ccccc3c2NC(=O)C2CC2)cc1OC | 4.83
98 | CCOC(=O)c1c(C)[nH]c(C(=O)COC(=O)CCC2CCCC2)c1C | 10.1
99 | Cc1[nH]c(C)c(S(=O)(=O)NCc2ccc(F)cc2)c1C(=O)N1CCCC1 | -5.83
100 | Cc1cc(-c2nnc(CCC(=O)NCCc3ccccc3F)o2)no1 | 3.41
101 | Cc1conc1NC(c1cccs1)c1ccc2cccnc2c1O (configuration not stated) | 23.6
102 | Cc1cccc(Nc2nc(C)nc3c2oc2ccccc23)c1 | 84.6
103 | S=c1[nH]c2ncccc2o1 | -10.1
104 | Cc1noc(C)c1CSc1nnc2ccc3ccccc3n12 | -5.77
105 | COc1ccc(-c2cc(C(=O)N3CCCCC3)c3ccccc3n2)cc1OC | 3.3
106 | COc1ccc(OC)c(C(=O)c2ccc(C(=O)N3CCCCC3)cc2)c1 | -8.89
107 | COc1ccc(CNC(=O)C2CCCN(S(=O)(=O)c3ccc(F)cc3)C2)cc1 (configuration not stated) | 7.47
